The full ranking holds about 110,000 compounds; the median of “z-score” is about -0.1, and the highest 2% start at about 2. This is one part of the list. The source made the active and inactive calls.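 How the source made its calls: active means z-score in the third read window above 3 or below -3; inactive means the rest.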
Each compound was assayed against Metabotropic glutamate receptor 8 (Rattus norvegicus) (UniProt P70579) (assay: mGluR8 Gi/Go-coupled signaling modulation – cell-based, rat, thallium flux, HTS, primary screen (AID 488969)). Conditions: HEK293 rat mGluR8, GIRK (G protein-gated inwardly rectifying potassium channel) thallium flux, FluoZin2; at 10 µM; stronger effect = higher value; submaximal glutamate (EC20) added with thallium.
UniProt P70579, sequence (P70579 whole entry, looked up): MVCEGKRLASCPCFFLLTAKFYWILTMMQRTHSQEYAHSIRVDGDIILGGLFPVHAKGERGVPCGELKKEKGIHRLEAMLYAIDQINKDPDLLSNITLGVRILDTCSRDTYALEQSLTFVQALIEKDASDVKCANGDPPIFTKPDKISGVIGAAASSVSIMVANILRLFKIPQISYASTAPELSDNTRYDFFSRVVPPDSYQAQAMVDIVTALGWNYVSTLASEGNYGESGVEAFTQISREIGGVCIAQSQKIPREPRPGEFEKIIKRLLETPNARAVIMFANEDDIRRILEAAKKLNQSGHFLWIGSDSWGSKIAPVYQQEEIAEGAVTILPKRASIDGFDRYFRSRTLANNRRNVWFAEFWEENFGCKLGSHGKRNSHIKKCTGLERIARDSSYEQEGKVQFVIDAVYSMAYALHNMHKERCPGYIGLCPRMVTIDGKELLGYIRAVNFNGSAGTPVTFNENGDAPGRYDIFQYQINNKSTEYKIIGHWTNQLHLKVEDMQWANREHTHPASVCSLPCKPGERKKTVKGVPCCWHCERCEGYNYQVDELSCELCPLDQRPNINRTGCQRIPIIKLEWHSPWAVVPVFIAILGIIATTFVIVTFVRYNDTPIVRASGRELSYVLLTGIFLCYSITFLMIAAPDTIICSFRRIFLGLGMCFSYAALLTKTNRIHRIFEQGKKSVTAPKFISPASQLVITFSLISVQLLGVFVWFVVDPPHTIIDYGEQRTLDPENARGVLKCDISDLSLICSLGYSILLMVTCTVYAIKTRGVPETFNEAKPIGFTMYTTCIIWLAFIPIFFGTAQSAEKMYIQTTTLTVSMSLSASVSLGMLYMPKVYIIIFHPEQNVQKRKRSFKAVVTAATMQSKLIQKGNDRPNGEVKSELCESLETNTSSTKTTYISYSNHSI

Row | Compound | z-score
1 | COc1ccccc1NS(=O)(=O)c1cc(NC(=S)Nc2cc(C)cc(C)c2)ccc1Cl | 1.31
2 | COc1cccc(C2CC(=O)N3CN(c4ccccc4F)CSC3=C2C#N)c1 (configuration not stated) | -0.499
3 | O=C(Nc1cccc2cccnc12)c1ccc2c(c1)OCCO2 | -0.538
4 | NS(=O)(=O)c1ccc(NC(=S)Nc2nn(Cc3ccc(Cl)cc3Cl)cc2Cl)cc1 | -0.149
5 | COc1ccc(NC2CS(=O)(=O)CC2NCc2ccccc2)cc1 (configuration not stated) | 0.261
6 | Cc1cccc(/C=N/n2c(-c3ccncc3)n[nH]c2=S)c1 | -0.531
7 | Cc1nn(C)c(Oc2ccc(Cl)cc2)c1C(=O)O | -0.178
8 | COc1cccc(C(=O)OCc2ccccc2C#N)c1O | -0.163
9 | CC1=C(C#N)C(NC(=O)c2ccco2)(C(F)(F)F)C(=O)N1 (configuration not stated) | -0.367
10 | O=[n+]1c2c(n([O-])c3cc(F)c(N4CCCC4)cc31)CCCC2 | active: -4.01
11 | Nc1nnnn1/N=C/c1ccccc1OCc1ccc(Cl)cc1 | -0.142
12 | CCN(CC)S(=O)(=O)c1ccc(Cc2ncc(C(F)(F)F)cc2Cl)s1 | 0.166
13 | Fc1ccc(C(c2nnnn2Cc2cccs2)N2CCN(c3ccccc3)CC2)cc1 (configuration not stated) | -0.136
14 | C=CCn1c(CCn2c3ccccc3c3ccccc32)n[nH]c1=S | 0.492
15 | COCCCN1C(=O)C(=O)/C(=C(/O)c2ccc3c(c2)OCCO3)C1c1ccc(C(=O)OC)cc1 (configuration not stated) | 0.713
16 | COc1cccc(-n2c(CN3CCN(c4ccccc4)CC3)nc3ccc([N+](=O)[O-])cc3c2=O)c1 | -0.00075
17 | COc1ccc(S(=O)(=O)N2CCCC(C(=O)NCc3ccccn3)C2)cc1 (configuration not stated) | 0.145
18 | Cn1cc(Br)c(C(=O)NNC(=O)c2ccc(Br)cc2)n1 | 0.0101
19 | CC(Oc1ccc(Cl)cc1Cl)C(=O)NC(=S)N1CCc2ccccc21 (configuration not stated) | active: 12.9
20 | Cc1ccc(Nc2nc(N)nc(CSc3nc(C)cc(C)n3)n2)cc1 | -1.05
21 | N#C/C(=N\Nc1cc(Cl)cc(Cl)c1)c1nnc2n1CCCCC2 | -0.116
22 | CC1CCC(C(=O)NC(C(=O)NCc2ccccn2)C(C)C)CC1 (configuration not stated) | -0.93

Row | Compound | z-score
23 | CCSc1nnc(NC(=O)Cc2ccc(OC)cc2)s1 | 0.258
24 | O=c1[nH]c2ccccc2cc1-c1noc(-c2cccnc2)n1 | 0.246
25 | O=C(NCc1ccco1)c1ccc(Cl)c(S(=O)(=O)N2CCOCC2)c1 | -0.395
26 | O=C1CC(N2CCN(c3ccccc3Cl)CC2)C(=O)N1c1cccc(F)c1 (configuration not stated) | 0.412
27 | CCNC(=O)c1cc(Cl)ccc1OC | 0.00234
28 | CCC1CCc2c(sc3ncnc(N4CCOCC4)c23)C1 (configuration not stated) | -0.267
29 | Cc1nc(N2CCOCC2)nc(OC(C)C)c1[N+](=O)[O-] | 0.117
30 | COc1ccccc1CCNC(=O)CCn1c(=O)oc2ccccc21 | 0.566
31 | COc1nc(Nc2ccc(-c3nc4ccccc4o3)cc2)nc(N2CCOCC2)n1 | 0.73
32 | Cn1cc(S(=O)(=O)CC(=O)N2CCCc3ccccc32)c2ccccc21 | -0.0522
33 | Cc1c(Cl)cccc1-n1c(SCC(=O)N(C)Cc2ccccc2)nnc1-c1ccncc1 | -0.531
34 | O=C(Nc1ccc(Cl)cc1)N1CCC(c2nc(-c3cccs3)no2)CC1 | -0.239
35 | CCOCCCNC(=O)C1CCN(C(=O)Nc2ccc(Cl)cc2)CC1 | 0.141
36 | CN(c1ccccc1)S(=O)(=O)c1cccc(C(=O)N2CCN(c3ccccn3)CC2)c1 | -0.41
37 | Cc1cc(C(=O)Nc2nnc(C3CCCCC3)s2)no1 | 0.35
38 | CCN1CCN(S(=O)(=O)c2ccc3ccccc3c2)CC1 | 0.0116
39 | CCc1[nH]c(C)c(C(C)=O)c1C | 0.445
40 | CCOC(=O)C1=C(C)n2c(s/c(=C/c3cccc([N+](=O)[O-])c3)c2=O)=NC1c1ccc(O)c(OC)c1 (configuration not stated) | -0.106
41 | O=C(Nc1nc2ccccc2s1)c1ccc(OCC2CCCO2)cc1 (configuration not stated) | -0.146
42 | CS(=O)(=O)c1ccc2nc(NC(=O)c3cc4ccccc4o3)sc2c1 | -0.192
43 | CCCCOc1ccc(C(=O)NCC(=O)OC2CCOC2=O)cc1 (configuration not stated) | -1.68
44 | CCCn1nnnc1SCC(=O)NNC(=O)C1CCCCC1 | 0.152

Row | Compound | z-score
45 | O=C(NCCc1ccccc1)c1noc2c1CCc1ccccc1-2 | -1.36
46 | CCCc1cc(C(=O)Nc2cc(OC)c(Cl)cc2OC)no1 | 1.06
47 | CCN(CC)c1ccc(NC(=O)c2cc(OC)cc(OC)c2)c(C)c1 | -0.691
48 | Clc1ccc2c(c1)CCc1cccnc1C2=C1CCNCC1 | 2.74
49 | Nc1c(C(=O)NCc2ccco2)c2nc3ccccc3nc2n1CCc1ccccc1F | 0.34
50 | O=C(NCc1ccc2c(c1)OCO2)C1CCC(CNS(=O)(=O)c2ccc(Cl)cc2)CC1 (configuration not stated) | -0.554
51 | O=C(N/N=C/C=C/c1ccc([N+](=O)[O-])cc1)C1COc2ccccc2O1 (configuration not stated) | -0.721
52 | COc1ccc(-n2c(SCC(=O)NCCC(C)C)nc3ccsc3c2=O)cc1 | -0.332
53 | CCCSc1ncc(Cl)c(C(=O)Nc2ccc(S(=O)(=O)N3CC(C)OC(C)C3)cc2)n1 (configuration not stated) | -0.85
54 | CCOc1ccccc1NC1=C(Cl)C(=O)N(Cc2ccccc2)C1=O | -0.0694
55 | CCc1ccc(NC(=O)c2ccc3ncsc3c2)cc1 | -0.251
56 | O=S(=O)(NCC(c1cccnc1)N1CCN(Cc2ccccc2)CC1)c1ccccc1 (configuration not stated) | 0.146
57 | CCOC(=O)c1cc(-c2ccccc2)sc1NC(=O)CN1C(=O)NC(CC)(c2ccc(F)cc2)C1=O (configuration not stated) | 0.433
58 | CSCC[C@H](NC(=O)c1cc([N+](=O)[O-])ccc1Cl)c1nc2ccccc2[nH]1 | -0.318
59 | COC(=O)c1ccc(N/C(C)=C/C(=O)c2ccc(C)o2)cc1 | 0.165
60 | O=C(CCOc1ccccc1)OCC(=O)c1cc2ccccc2o1 | -0.474
61 | CCc1ccccc1NC(=O)C(CC)Sc1nc2cc3c(cc2c(=O)n1Cc1ccco1)OCO3 (configuration not stated) | 0.292
62 | Cc1cc(NC(=O)C2CCN(S(=O)(=O)c3cccs3)CC2)no1 | 0.21
63 | CC1CCN(c2ccc(C(=O)O)cc2)CC1 | -0.483
64 | COC(=O)n1c(=S)oc2cc(Cl)ccc21 | 2.15
65 | CCc1cccc(CC)c1NC(=O)COC(=O)CCc1cc(OC)c(OC)c(OC)c1 | -0.0755
66 | CN(C)c1ccc(NC(=O)c2cc3c(=O)n4ccccc4nc3n2C)cc1 | 0.349

Row | Compound | z-score
67 | Cc1ccc2nc3sc(C(=O)Nc4ccc(N5CCOCC5)cc4)c(N)c3cc2c1 | 0.05
68 | O=C(CCCN1C(=O)/C(=C/c2ccccc2Cl)SC1=S)Nc1ccccn1 | -0.484
69 | CCOC(=O)CSC1=Nc2ccccc2C2=NC(CC(=O)NCc3cccs3)C(=O)N12 (configuration not stated) | 0.253
70 | COc1cc(S(=O)(=O)NC2CCCC2)ccc1Cl | 0.143
71 | CC(NC(=O)c1ccccc1)C(=O)OCC(=O)N1c2ccccc2Sc2ccccc21 (configuration not stated) | -0.279
72 | O=C(c1ccccc1)N1CCCCC(S(=O)(=O)c2ccccc2)C1=O (configuration not stated) | 0.000431
73 | CC1CC(C)(C)N(C(=O)CN2C(=O)c3ccccc3C2=O)c2ccccc21 (configuration not stated) | -0.0713
74 | CCCCOCCCNC(=O)c1cccs1 | -0.253
75 | O=C(c1ccco1)N1CCN(C(=O)c2ccccc2Oc2ccccc2)CC1 | -0.142
76 | CCOc1cc(CNCCCN2CCOCC2)cc(Br)c1OCC(=O)Nc1cccc(C(F)(F)F)c1 | 0.933
77 | CCn1c(CCNC(=O)c2cccs2)n[nH]c1=S | -0.239
78 | CC(C)CNC(=S)NC(=O)c1ccc([N+](=O)[O-])cc1 | active: 6.28
79 | O=C(CSc1cccc2cccnc12)OCC(=O)c1ccccc1 | 0.45
80 | CCNC(=O)N1c2ccc(OC)cc2C(C)=CC1(C)C | 0.559
81 | N#C/C(=C\c1ccccc1)C(=O)Nc1cc(S(=O)(=O)N2CCOCC2)ccc1N1CCCC1 | -0.0157
82 | COc1cc2c(cc1OC)/C(=C/C#N)NC(C)(C)C2 | -0.0215
83 | COc1ccc(N2C(=O)C3C4C=CC(C5CC45)C3C2=O)c([N+](=O)[O-])c1 (configuration not stated) | -0.379
84 | Cc1cc(C(=S)N2CCOCC2)c(C)n1-c1ccc(Cl)cc1 | -0.0207
85 | COc1ccc(N=C2NC(=O)S/C2=C\c2ccc(N(C)C)cc2)cc1 | -0.538
86 | CCCNS(=O)(=O)c1ccc(CCC(=O)NCc2cccnc2)cc1 | 0.0352
87 | Cc1cc(=O)[nH]c(SCC(=O)NCCOc2ccccc2)n1 | 0.318
88 | C/C(=N\NC(=O)C(c1ccncc1)N1CCOCC1)c1ccc(Br)cc1 (configuration not stated) | -0.164

Row | Compound | z-score
89 | Cc1nn(Cc2ccccc2Cl)c2sc(C(=O)NC(C)(C)C)cc12 | -0.712
90 | Cc1cc2c(cc1C)NC1(C(=O)Nc3ccccc31)C1=C(CC(C)(C)CC1=O)N2 (configuration not stated) | 0.0524
91 | CC1CCCN(C(c2cccs2)c2nnnn2Cc2ccccc2)C1 (configuration not stated) | 0.0292
92 | COc1cc(OC)c(NC(=O)CCc2nc(-c3ccc(C)cc3)no2)cc1Cl | -0.421
93 | CC(OC(=O)c1ccc(S(=O)(=O)NCc2ccco2)cc1)C(=O)Nc1ccc(Cl)cn1 (configuration not stated) | 0.0569
94 | O=C1c2ccccc2C(=O)N1Cc1ccco1 | -0.072
95 | O=C(CNC(=O)Cc1ccccc1)NCC(=O)OCC(=O)c1cccc2ccccc12 | -0.402
96 | CCOC(=O)c1c(NC(=O)CSc2ncn[nH]2)sc(C)c1C | -2.21
97 | Cc1cc(C)nc(SCc2nnc(SCC(=O)N3CCCc4ccccc43)n2C)n1 | -0.126
98 | CCCCn1c(SC(C)C(N)=O)nc2cc(C(=O)OC)ccc2c1=O (configuration not stated) | active: 3
99 | O=C(/C=C/c1ccc(S(=O)(=O)N2CCOCC2)cc1)NCc1ccccc1 | -0.687
100 | Cc1cc(C)cc(Oc2ccccc2/C=C\C(=O)O)c1 | -0.34
101 | CCOc1ccccc1N1CCN(S(=O)(=O)c2cccs2)CC1 | active: -3.76
102 | NC(=O)c1c(NC(NC(=O)c2ccco2)(C(F)(F)F)C(F)(F)F)sc2c1CCCC2 | -0.0885
103 | CCOC(=O)CCC(NC(=O)CCCC(=O)NC(CCC(=O)OCC)C(=O)OCC)C(=O)OCC (configuration not stated) | 0.886
104 | CCOc1cc2nc(-c3ccc(OC)c(OC)c3)nc(NCCCN3CCOCC3)c2cc1OC | -0.681
105 | CCOC(=O)C1C2C=CC3(CN(Cc4cccs4)C(=O)C13)O2 (configuration not stated) | 0.19
106 | COc1ccc(/C=C(\NC(=O)c2ccc(OC)c(OC)c2)C(=O)NCCc2c[nH]c3ccccc23)cc1 | -0.337
107 | O=c1c2c(ncn2C2CCCC2)n(Cc2ccccc2)c(=O)n1CCOc1ccccc1 | -0.52
